From PubChem BioAssay AID1347417 (National Center for Advancing Translational Sciences (NCATS), 2020)
Among all 120,000 compounds or so, about 5,300 (4.4%) were called active. The inconclusive results got no clear call from the source; some entries with a clear call stand among them for comparison. The call rests on the fitted dose curve; in most records, active means well fitted inhibition curve with a large enough effect; inconclusive means small, poorly fitted or top-dose-only effect; inactive means no such curve, though single readings can be large or run the other way. Potencies of inconclusive entries are doubtful fits and often do not repeat.

Test: qHTS Primary assay for Inhibitors of Plasmodium falciparum Dd2 growth in vitro; further: nearly all actives have a fitted effect of over 65% in size
Conditions: P. falciparum Dd2 growth, SYBR Green, 72 h; series mostly up to 28.9 µM
Source text: Malaria, a parasitic disease spread to humans through the bite of a Plasmodium infected Anopheles mosquito, continues to be a global health burden affecting millions of people, with an estimated 228 million cases and 405,000 deaths in 2018. Concerns about safety and limitations of current antimalarial treatments strongly emphasize the need to develop new therapeutic options. The scarce number of chemotypes and validated drug targets with efficacy against the liver stage, have hindered development of new antimalarials. To address this, a chemoprophylactic drug discovery effort was conducted through a combined phenotypic high-throughput asexual blood stage and liver stage screen, providing a robust foundation to identify liver-stage active lead chemotypes. Compounds were initially screened against Plasmodium falciparum Dd2 strain parasites using a in vitro SYBRGreen-1 based 72 hr proliferation assay to identify novel chemotypes to advance to liver stage assays. NIH/NCATS Early Translation Branch Assay Submitter (PI): Anton Simeonov Ph.D.
Malaria-vivax Assay Protocol: PROTOCOL TABLE (as described by Inglese et al., 2007) SEQUENCE No. (e.g., 1, 2, 3, etc.); […] (e.g., Cells, Incubation, Reagent, etc.); VALUE; DESCRIPTION SEQUENCE, Parameter, Description 1; Reagent; 3 uL complete malaria growth medium, 1536 TC treated Black clear bottom plate 2; Controls; 23 nL positive control artesunate (300 nM final) to column 1; Neutral control DMSO to columns 2-4 3; Compound; 23 nL of compounds in dose response concentration (29 uM to 0.5 nM final) 4; Reagent; 5 uL malaria infected red blood cells (2.5% hematocrit final, 0.3% parasitemia 5; Time; 72 hours at 37C (5% O2, 5% CO2, 90% N2; 95% Rh) 6; Reagent; 2 uL lysis buffer/SYBRGreen-1, 25 sec shake immediately following dispense 7; Time; ~16 hours at 37C (5% O2, 5% CO2, 90% N2; 95% Rh) 8; Detector; EnVision (PerkinElmer) bottom read at 485/14nm excitation and 535/25 nm emission NOTES (numbers refer to sequence above): 1; Complete Malaria Growth Media: 1X RPMI-1640 w/L-glutamine, 5.5g/L Albumax II, 367 uM Hypoxanthine, 25 mM HEPES, 0.25% Sodium Bicarbonate, 35 uM Gentamicin sulfate 2; Controls were added using the Kalypsis Pintool (Wako USA) equipped with 1536 pinhead 3; Compounds were added in a 7-point, titration with a high final concentration of 29 uM by Pintool from seven inter-plate titrations of library plates and two DMSO control plates at the beginning and end (see Yasgar et al., 2008). 4; Red blood cells infected with Plasmodium falciparum Dd2 parasites were used. 6; Lysis buffer: 20 mM Tris-HCl, 10 mM EDTA, 0.16% Saponin, 1.6% Triton-X, 10X SYBR Green. REFERENCE: Inglese J, Shamu CE, Guy RK. 2007. Reporting data from high-throughput screening of small-molecule libraries. Nat Chem Biol. doi:10.1038/nchembio0807-438 Yasgar A, Shinn P, Jadhav A, Auld D, Michael S, Zheng W, Austin CP, Inglese J, Simeonov A. 2008. Compound Management for Quantitative High-Throughput Screening. J Lab Autom 13:79-89. doi:10.1016/j.jala.2007.12.004
Potency means the concentration at half of the fitted maximal effect; tags describe the fitted curve by direction and shape.

Compound | Potency
Cc1cccc(NC(=O)CSc2nc(-c3ccco3)cc(C(F)(F)F)n2)c1C | inactive
CCc1ccc(NC(=O)C(C)C2CCOCC2)cc1 (stereo unspecified) | inactive
CN1CCC(Oc2ncccc2C(=O)N(C)C)C1 (stereo unspecified) | inactive
COc1ccc(NC(=O)c2ccc3c(c2)sc2nc(-c4ccc(OC)cc4)cn23)cc1 | inactive
Cc1ccc(NC(=O)Cn2c(=O)n(Cc3ccco3)c(=O)c3ccccc32)c(C)c1 | inactive
CCOc1ccccc1CN1CCN(c2ncnc3[nH]ccc23)CC1CCO (stereo unspecified) | inconclusive: 10 µM [inhibitor, single point]
CCOc1ccc(C2CC(=O)N(c3cccc(F)c3)C3=C2C(=O)OC3)cc1 (stereo unspecified) | inactive
Cc1ccc(-n2nc3c(=O)n(CCCC(=O)NCCc4ccccc4Cl)nc(C)c3c2C)cc1 | inconclusive: 10 µM [inhibitor, single point]
O=C1CCN(S(=O)(=O)c2ccccc2)CCCN(S(=O)(=O)c2ccccc2)CCN1 | inactive
O=C(O)CCn1ncc2cc(OCC3CCN(c4ncc(F)cn4)CC3)ccc21 | inactive
CN1CCCCCCN(C(=O)CC2CCCC2)[C@H]2CCC[C@H]2C1=O | inconclusive: 4.47 µM [inhibitor, partial curve, poor fit]
COc1ccc(NCc2cc3cc4c(cc3n(CC(=O)Nc3cc(C)ccc3C)c2=O)OCCO4)cc1 | inconclusive: 11.2 µM [inhibitor, single point]
CC(C)c1ccc(NS(=O)(=O)c2ccc3nc(-c4ccccc4)[nH]c3c2)cc1 | inconclusive: 14.1 µM [inhibitor, partial curve, poor fit]
CCOc1ccc(CN2CCc3nc(Nc4ccc5c(c4)OCCO5)ncc3C2)cc1 | inconclusive: 3.16 µM [inhibitor, partial curve, poor fit]
COCCCNC(=O)N1C[C@@H](Oc2ccccc2)C[C@H]1C(=O)N1CCOCC1 | inactive
COc1ccc(CCNC(=O)c2ccc(Cn3c(=O)c4ccccc4n(Cc4cccc(Cl)c4)c3=O)cc2)cc1OC | inconclusive: 8.91 µM [inhibitor, single point]
COc1ccccc1N1CCN(C(=O)Cn2c(N3CCc4ccccc4C3)nc(C)cc2=O)CC1 | inconclusive: 10 µM [inhibitor, single point]
Cc1nc(-c2ccc(Cl)cc2)n(CC(=O)Nc2cccc(C(F)(F)F)c2)c(=O)c1CCO | inconclusive: 1.78 µM [inhibitor, partial curve, poor fit]
Cc1cnc(CCNC(=O)Cc2cccc(F)c2)n1Cc1ccc(F)cc1 | inconclusive: 2 µM [inhibitor, partial curve, poor fit]
O=C(Nc1nnc2n1CCS2)c1ccccc1C(F)(F)F | inactive
Cc1ccc2c(c1)nc1n2[C@@H](CNCc2ccccc2)COC1 | inconclusive: 10 µM [inhibitor, partial curve, poor fit]
CCc1ccccc1NC(=O)c1ccc2nc(C(C)C)oc2c1 | inconclusive: 11.2 µM [inhibitor, single point]

Compound | Potency
O=C1COc2ccc(-c3ccc(F)cc3)nc2CN1Cc1ccccc1F | inactive
Cc1ccc(-c2cc(N3CCCN(C(=O)c4ccc5c(c4)OCO5)CC3)n[nH]2)cc1C | inconclusive: 12.6 µM [inhibitor, partial curve, poor fit]
CC(=O)c1ccc(N2CCN(C(=O)CCCCn3c(=O)[nH]c4ccsc4c3=O)CC2)cc1 | inconclusive: 17.8 µM [inhibitor, single point]
CC1(C)CC(=O)c2cc(C(=O)Nc3ccccc3Cl)c(=O)n(-c3ccc(Cl)cc3)c2C1 | inconclusive: 8.91 µM [inhibitor, partial curve, poor fit]
COCCOc1ccc2c(n1)CCN(C(=O)CCn1nc(C)cc1C)C2 | inactive
Cc1nccnc1N1CCC(N2CCCC(C(=O)NCCc3ccccc3)C2)CC1 (stereo unspecified) | inconclusive: 2.51 µM [inhibitor, full curve, poor fit]
COc1cccc(C(=O)NCC(c2ccc3c(c2)OCO3)N2CCOCC2)c1 (stereo unspecified) | inconclusive: 17.8 µM [inhibitor, partial curve, poor fit]
O=C(Nc1cccc(C(F)(F)F)c1)O[C@@H]1CO[C@H]2[C@@H]1OC[C@@H]2n1cc(-c2ccccn2)nn1 | active: 10 µM
O=C(NC1CCCCC1)N1Cc2[nH]cnc2C[C@H]1c1nc(-c2ccc(F)c(Cl)c2)no1 | inconclusive: 11.2 µM [inhibitor, partial curve]
Cc1cc(C)cc(NC(=O)Nc2ccc3nc(N4CCN(C)CC4)cc(C)c3c2)c1 | inconclusive: 3.16 µM [inhibitor, partial curve, poor fit]
CCOc1ccc(NC(=O)N2CCC(N3CC4CC(C3)[C@H]3CCCC(=O)N3C4)CC2)cc1 (stereo partly specified) | inconclusive: 20 µM [inhibitor, single point]
CCCS(=O)(=O)c1nc(S(=O)(=O)c2ccc(C)cc2)c(NCc2ccccc2Cl)s1 | inconclusive: 10 µM [inhibitor, single point]
COc1cccc(CNC(=O)Nc2cccc(-c3ccc(N4CCOCC4)nn3)c2)c1 | inconclusive: 20 µM [inhibitor, partial curve, poor fit]
COc1cccc(CC(=O)NCc2nnc3c(-c4nc(C(C)C)no4)cccn23)c1 | inconclusive: 7.94 µM [inhibitor, partial curve, poor fit]
O=C(NC1CCN(Cc2ccccc2)CC1)c1c(OCC2CC2)cc(=O)n2c1CCCCC2 | inconclusive: 8.91 µM [inhibitor, single point]
CC(=O)N1CCC(NC[C@H]2COCc3nc4cc(C)ccc4n32)CC1 | inactive
COc1cccc(C(=O)N2CCC3(CC2)NC(=O)N(c2cccc(F)c2)N3)c1 | inconclusive: 12.6 µM [inhibitor, single point]
CC(C)NC(=O)C(C)[C@@H]1CC[C@@]2(C)CC[C@H](NC(=O)CC(C)(C)C)[C@@H](C)[C@@H]2[C@H]1O (stereo partly specified) | active: 6.31 µM
COc1ccc(C2Cn3nnc(-c4nc(-c5cccc(C(F)(F)F)c5)no4)c3CO2)cc1 (stereo unspecified) | inactive
CSc1ccc(CNC(=O)c2cc3n(n2)CC(c2ccc(Cl)cc2)OC3)cc1 (stereo unspecified) | inconclusive: 12.6 µM [inhibitor, single point]
CC(C)c1noc(-c2ccn3c(CNC(=O)c4ccco4)nnc3c2)n1 | inconclusive: 7.94 µM [inhibitor, single point]
CC(C)C1N=C2c3ccccc3N=C(SCC(=O)NCc3ccc(Cl)cc3)N2C1=O (stereo unspecified) | inconclusive: 15.8 µM [inhibitor, single point]

Compound | Potency
O=C(Cc1ccc(Cl)cc1)N1CCC2(CC1)NC(=O)N(c1ccc(F)cc1)N2 | inactive
Cc1c(C(=O)OC(C)C)sc(NC(=O)C2c3ccccc3Oc3ccccc32)c1C(=O)OC(C)C | active: 2.24 µM
Cc1ccc(-n2c3nc(=O)[nH]c(=O)c-3cc3c(C)nn(-c4ccccc4)c32)cc1C | inactive
c1ccc(OCCC2CCNC2)cc1 (stereo unspecified) | inactive
Cc1ccc(CN2CCCC(CNS(=O)(=O)C3CC3)C2)cc1C (stereo unspecified) | inconclusive: 12.6 µM [inhibitor, single point]
Cc1ccc(CN2CCC3(CC2)COc2ccccc2CN3)cc1 | active: 6.31 µM
Cc1cc(C)cc(Nc2nc(C)cc(=O)n2CC(=O)Nc2cccc(Br)c2)c1 | inconclusive: 3.98 µM [inhibitor, full curve, poor fit]
CCOc1ccc(C2Cn3nnc(-c4nc(-c5ccccc5Br)no4)c3CO2)cc1 (stereo unspecified) | inactive
CCNC(=O)N1CC[C@H]2CC(=O)N([C@H](C(N)=O)C(C)C)CC[C@H]2C1 | inconclusive: 0.447 µM [inhibitor, full curve, poor fit]
COC1CCN(CC2CCCCCN2C(=O)CCCc2ccccc2)CC1 (stereo unspecified) | inconclusive: 1.12 µM [inhibitor, partial curve]
O=C(Nc1cccc(F)c1)N1CCC(Oc2ncccc2C(=O)N2CCOCC2)C1 (stereo unspecified) | inactive
Cc1nc(-c2ccc(F)cc2)n(Cc2nc(-c3ccccc3)oc2C)c(=O)c1CCO | inconclusive: 17.8 µM [inhibitor, single point]
O=C(Nc1ccccc1)N1CCC(N2CCCNC2=O)CC1 | inactive
Cc1cc(COc2ccccc2)oc1C(=O)N1C[C@@H]2CCN(C)[C@@H]2C1 | inconclusive: 10 µM [inhibitor, partial curve]
COc1ccc(-c2cc(N3CCC(NC(=O)c4cc(C)ccc4C)CC3)n[nH]2)cc1 | inconclusive: 2 µM [inhibitor, single point]
COc1ccc(Cn2c(C(=O)O)c(CNCc3ccco3)c3ccc(OC)cc32)cc1 | inconclusive: 17.8 µM [inhibitor, single point]
COc1ccc(-n2cnc3cc(C(=O)NC4CCCC4)ccc32)cc1 | inconclusive: 8.91 µM [inhibitor, single point]
Cc1ncc2c(n1)C[C@@H]1CC[C@H]2N1C(=O)C1CCCCC1 | inactive
COc1ccc(CNC(=O)CSc2ncc3c(n2)-c2ccc(Cl)cc2N(Cc2ccc(F)cc2)S3(=O)=O)cc1OC | active: 11.2 µM
O=C(COc1ccc(F)cc1)NCC(c1ccc(Cl)cc1)N1CCCCC1 (stereo unspecified) | inconclusive: 10 µM [inhibitor, single point]
CCCn1ccnc1CN1CCc2nc(-c3ccc(Cl)cc3)[nH]c2C1 | inconclusive: 11.2 µM [inhibitor, single point]
CCOc1ccccc1NC(=O)Cn1cccc1-c1nc(-c2ccc(OC)c(F)c2)no1 | inconclusive: 1.12 µM [inhibitor, full curve]
